Laboratory results published in ChEMBL document CHEMBL4888484, “Replenishing the malaria drug discovery pipeline: Screening and hit evaluation of the MMV Hit Generation Library 1 (HGL1) against asexual blood stage Plasmodium falciparum ,using a nano luciferase reporter read-out” (2022).
The whole screen tested about 150,000 compounds, of which about 540 (0.36%) showed an effect of 50% or more. Some of the results follow.

Each molecule was assayed on Plasmodium falciparum (assay: Primary screen in NF54 nanoGlo assay, in single point, at 2uM, 72h; a lower Z score goes with more inhibition). Details: timepoint 72 hour.
Format: functional, Erythrocyte

| Structure (SMILES) | % Inhibition | Z score |
| --- | --- | --- |
| N#Cc1ccc(C=Cc2nc(=O)cc[nH]2)cc1 | -4% | 0.58 |
| C[C@H](Oc1ncccc1C(=O)NCC1(CO)CCC1)C(F)(F)F | -17% | 1.81 |
| COc1ccc(F)cc1[C@H]1CC(=O)NCc2nc(N)sc21 | -4% | 0.51 |
| CC1=C(C(=O)c2ccccc2)[C@@](NC(=O)CC(C)C)(C(F)(F)F)C(=O)N1CCc1ccccc1 | -11% | 1.74 |
| CCC(O)C(C)NC(=O)[C@H]1C[C@]1(C(=O)NC(C)C(O)CC)C(C)C (stereo not given in full) | -12% | 1.73 |
| CCn1nccc1CCN1CC(=O)NC2CCCCC21 (stereo not given) | -2% | 0.22 |
| CN1CCC(CNC(=O)NC[C@@H]2Cc3ccccc3CO2)CC1=O (stereo not given in full) | -4% | 0.63 |
| COc1cccc(-c2cn(CCS(=O)(=O)N(C)C)nn2)n1 | -4% | 0.56 |
| O=C1C[C@H](c2ccc(F)c(Br)c2)c2cnn(Cc3ccco3)c2N1 | -11% | 1.37 |
| COC[C@H]1CCCN1S(=O)(=O)NCCOc1ccccc1F | -8% | 1.44 |
| CN(C)[C@H]1CCCN(C(=O)NCc2nc(Cc3cccs3)no2)CC1 | -12% | 2.12 |
| CCNc1nc(C(=O)N2CC(=O)N(CCOC)C2)cs1 | -7% | 0.9 |
| CC(C)c1csc(NC(=O)[C@H](C)n2cccn2)n1 | -9% | 1.5 |
| CC(C)N1C(=O)CC(C(=O)NCCOCC(F)(F)F)C1c1ccc(Cl)c(F)c1 (stereo not given) | -5% | 0.8 |
| CCN1C(=O)[C@@]2(c3ccccc31)[C@@H]1C(=O)N(c3ccc(Cl)c(C(F)(F)F)c3)C(=O)[C@@H]1[C@@H]1CCCN12 | -8% | 0.98 |
| CCCCS(=O)(=O)Nc1cnc2c(c1)COCC2 | 4% | -0.85 |
| CCCNc1ncc(CN2C[C@@H]3CC[C@H]2CN(Cc2c(C)noc2C)C3)cn1 | 23% | -2.97 |
| CC(C)(C)OC(=O)N1CCC(n2c(=O)[nH]c3ccsc3c2=O)CC1 | -10% | 1.12 |
| O=C(c1ccc2nccnc2c1)N1CCC(n2cc(-c3ccccc3)nn2)CC1 | -22% | 2.76 |
| O=C(c1csc(S(=O)(=O)N2CCN(c3ccccc3)CC2)c1)N1CCCC1 | 0% | -0.02 |
| Fc1cccc(-c2nc(-c3cn(-c4cccc(F)c4)nn3)no2)c1 | -22% | 4.26 |
| Cc1cc(C)nc(NC(=O)[C@]2(C(C)C)CNC(=O)C2)c1 | -15% | 1.45 |
| CC(C)c1csc(C(=O)N2CCC3(CC2)C(=O)NCCCN3C)n1 | 2% | -0.22 |
| Cc1cc(C(=O)NCC#N)c(Cl)cc1F | -4% | 0.81 |
| Cc1nc(C(=O)NC2CN(C3CC3)CC2C)n(C)n1 (stereo not given) | -5% | 0.59 |
| O=C(Nc1cc(CCc2ccccc2)n[nH]1)[C@@H]1COCCO1 | 0% | -0.04 |
| O=C(c1cccnc1)c1ccc(F)c(F)c1 | -4% | 0.69 |
| CN(C)c1ccccc1C(=O)N1CCc2[nH]c(-c3cn[nH]c3)nc2C1 | -4% | 0.73 |

| Structure (SMILES) | % Inhibition | Z score |
| --- | --- | --- |
| Cc1cnc(C2CN([C@@H](C)C3CC3)C2)n1Cc1ccccc1 | -20% | 2.56 |
| COc1cc(C(=O)NCc2ccccn2)nc2c(C)cc(F)cc12 | -7% | 0.98 |
| CC1CC(C)n2nccc2N1C(=O)c1cc(C2CC2)nc2ccccc12 (stereo not given) | -1% | 0.16 |
| COc1ccc(OC)c(CNc2ncnc3c2nc2n3CCCCC2)c1 | -16% | 2.6 |
| Oc1nc2nonc2nc1Nc1ccccc1 | 16% | -3 |
| Cc1ccc(S(=O)(=O)CCc2noc(C(=O)NC(C)C)n2)cc1 | -16% | 2.19 |
| CC1(C)C(=O)N(Cc2ccccc2)CCN1C(=O)[C@@H]1COCCO1 | -8% | 1.51 |
| C[C@@H](CCc1ccccc1F)NCc1cccnc1 | 0% | -0.03 |
| COc1ccc(CN2CCC[C@H](S(C)(=O)=O)C2)cn1 | -9% | 1.68 |
| Cc1noc(C)c1S(=O)(=O)NC1CCCC(O)C1 (stereo not given) | -5% | 0.96 |
| CCN1C(=O)c2cc(NS(=O)(=O)c3ccc(NC(C)=O)cc3C)ccc2Oc2ccccc21 | -19% | 2.12 |
| CC(C)CCOc1ccc(S(=O)(=O)N(CC#N)CC(F)(F)F)cc1 | -9% | 1.07 |
| Cc1cccnc1C[C@H](C)NC(=O)c1cnc(N2CCN(C)CC2)nc1C | -2% | 0.52 |
| COc1ccc(C(=O)CCC(=O)NCC#N)c(Cl)c1 | -11% | 1.29 |
| CC(C)Cc1nc(CNC(=O)[C@H](C)OC(C)C)no1 | -11% | 1.39 |
| CCS(=O)(=O)c1ccc2oc(-c3ccccc3OS(=O)(=O)c3ccccc3OC)nc2c1 | -11% | 1.76 |
| Cc1ccc(C(=O)NCC(F)(F)F)s1 | 0% | -0.01 |
| Cc1cc2sc(NC(=O)N[C@@]3(C)CCOC3)nc2s1 | -10% | 1.03 |
| CCNc1cnc(-c2noc([C@H]3CC(=O)N(c4nccs4)C3)n2)cn1 | -7% | 0.71 |
| O=C(CC1CC2CCC1C2)N1CC2CC1CS2(=O)=O (stereo not given) | -6% | 0.89 |
| CCN(CC(=O)Nc1c(F)cccc1F)C(=O)c1ccccn1 | -6% | 0.81 |
| CCc1nn(C)c2c(=O)n([C@@H](CC)COC)cnc12 | -12% | 1.3 |
| CCCCn1c(N)c(N2CCOCC2)c(=O)n(CC(=O)Nc2cc(OC)cc(OC)c2)c1=O | -10% | 1.17 |
| CN1CCN(Cc2ccc(NCc3ccc(-c4cccnc4)o3)cc2Br)CC1 | 2% | -0.28 |
| Cc1cc(C(=O)O[C@H]2CCc3cccnc32)on1 | -6% | 0.61 |
| CC1(C)NC(=O)N(CC(=O)N2CCC[C@H](n3cccn3)C2)C1=O | -7% | 0.97 |
| CC(C)c1noc(COc2ccc(C(=O)NC3CC3)cc2)n1 | -6% | 0.58 |
